The source of these data is article PMC4336329 (PLoS ONE, 2015).

Among all 310,000 compounds or so, about 2,200 (0.71%) showed an effect of 50% or more. The effect is printed as a negative number. This is one part of the list.

In this test the target is human ether-à-go-go-related gene (hERG) potassium channel (human, UniProt Q12809). The test can be described thus: primary screen, population patch clamp on CHO cells stably expressing hERG.
Sequence of human ether-à-go-go-related gene (hERG) potassium channel (Q12809 whole entry, looked up): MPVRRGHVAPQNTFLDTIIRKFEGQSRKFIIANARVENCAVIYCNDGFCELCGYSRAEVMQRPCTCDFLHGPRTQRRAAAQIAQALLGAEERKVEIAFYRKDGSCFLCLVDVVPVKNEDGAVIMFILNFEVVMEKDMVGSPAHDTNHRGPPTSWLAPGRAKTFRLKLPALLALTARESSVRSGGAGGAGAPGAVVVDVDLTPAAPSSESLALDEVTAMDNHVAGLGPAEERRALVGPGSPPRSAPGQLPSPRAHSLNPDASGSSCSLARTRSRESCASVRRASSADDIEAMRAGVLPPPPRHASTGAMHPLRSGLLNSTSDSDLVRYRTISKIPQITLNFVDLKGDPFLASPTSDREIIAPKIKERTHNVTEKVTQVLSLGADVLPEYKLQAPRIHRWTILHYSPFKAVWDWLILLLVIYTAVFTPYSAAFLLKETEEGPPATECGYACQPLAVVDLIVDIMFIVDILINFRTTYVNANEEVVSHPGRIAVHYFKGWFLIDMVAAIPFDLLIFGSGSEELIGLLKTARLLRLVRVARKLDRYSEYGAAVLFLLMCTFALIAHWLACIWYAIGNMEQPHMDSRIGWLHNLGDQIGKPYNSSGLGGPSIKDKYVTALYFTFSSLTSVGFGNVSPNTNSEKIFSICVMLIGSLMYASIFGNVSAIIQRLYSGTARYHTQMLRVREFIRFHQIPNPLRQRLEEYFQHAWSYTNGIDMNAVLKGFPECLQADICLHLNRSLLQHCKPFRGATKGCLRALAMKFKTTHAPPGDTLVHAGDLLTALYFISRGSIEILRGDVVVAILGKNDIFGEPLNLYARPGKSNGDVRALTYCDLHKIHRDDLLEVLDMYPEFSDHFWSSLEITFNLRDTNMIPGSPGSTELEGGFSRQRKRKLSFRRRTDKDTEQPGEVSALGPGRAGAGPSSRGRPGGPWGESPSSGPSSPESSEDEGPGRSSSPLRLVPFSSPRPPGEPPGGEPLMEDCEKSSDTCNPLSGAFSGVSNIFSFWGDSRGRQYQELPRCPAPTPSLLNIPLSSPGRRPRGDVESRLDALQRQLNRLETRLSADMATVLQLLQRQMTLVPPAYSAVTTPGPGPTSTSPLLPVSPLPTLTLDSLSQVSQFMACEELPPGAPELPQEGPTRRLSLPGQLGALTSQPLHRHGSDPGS
In the case of `Cc1cc(N2CCOCC2)ccc1/C=C1/SC(=O)NC1=O`, the “hERG current change (%, negative = inhibition) at 1uM” value is reported as 5.26%.

For `CS(=O)(=O)c1ccc2nc(NC(=O)c3cc(-c4ccccc4)nn3-c3ccccc3)sc2c1`, the “hERG current change (%, negative = inhibition) at 1uM” value came to 14.2%. For `O=C(NCc1ccccc1Cl)C1CCN(S(=O)(=O)c2ccc(-n3cnnn3)cc2)CC1`, the “hERG current change (%, negative = inhibition) at 1uM” value is on record as -3.01%.

Turning to `CCOC(=O)c1cc(C(=O)c2cc(Cl)ccc2O)coc1=N`, the “hERG current change (%, negative = inhibition) at 1uM” value stood at 9.5%. With `Cc1ccccc1-n1c(=O)cc(N2CCCCCC2)[nH]c1=O`, the “hERG current change (%, negative = inhibition) at 1uM” value is recorded as 4.68%. On to `O=C(O)CCC(=O)N1CCN(c2ccccn2)CC1`, for which the “hERG current change (%, negative = inhibition) at 1uM” value was found to be 9.22%. In the case of `COc1cccc(-c2nc(NCCN3CCOCC3)c3ccccc3n2)c1O`, the “hERG current change (%, negative = inhibition) at 1uM” value is reported as -0.437%. As for `Cc1cc(C)c2nc(N3CCCC3)c(C#N)cc2c1`, the “hERG current change (%, negative = inhibition) at 1uM” value is reported as -1.75%. Turning to `Cc1cccc(NC(=O)CS(=O)(=O)c2cn(C)c3ccccc23)c1`, the “hERG current change (%, negative = inhibition) at 1uM” value stood at 2.95%. `Cc1cc2occ(CC(=O)Nc3nccs3)c2cc1C(C)C`: the “hERG current change (%, negative = inhibition) at 1uM” value was 6.91%. As to `Cc1ccc(S(=O)(=O)Nc2cccc(C(=O)NC3CCN(Cc4ccccc4)CC3)c2)cc1F`, the “hERG current change (%, negative = inhibition) at 1uM” value was -27.4%. Consider `Cc1oc(-c2cccs2)nc1CSCC(=O)N1CCC2(CC1)OCCO2`, for which the “hERG current change (%, negative = inhibition) at 1uM” value came to 7.4%.

For `COc1ccc2[nH]c3c(c2c1)CN(C)CC3.Cl`, the “hERG current change (%, negative = inhibition) at 1uM” value worked out at 7.2%. Next, `O=C(C1CCN(S(=O)(=O)c2ccc(-n3cnnn3)cc2)CC1)N1CCCCC1`: 3.7%; `COc1cc(OC)c(N(C)C(=O)c2cc3c(s2)-c2ccccc2S(=O)(=O)C3)cc1Cl`: 12.5%; `CCCn1c(NCc2ccco2)nc2c1c(=O)n(C)c(=O)n2C`: 2.05%. For `CCC(C)NS(=O)(=O)c1ccc(OCC(=O)NCc2cccnc2)cc1` (stereo not drawn), the “hERG current change (%, negative = inhibition) at 1uM” value amounted to 12.3%. As to `Cc1onc(-c2ccccc2Cl)c1C(=O)NC(=S)NCC(=O)c1ccccc1`, the “hERG current change (%, negative = inhibition) at 1uM” value worked out at 12.5%. As for `COC(=O)NNC(=O)COc1cc(C)c(Br)cc1C(C)C`, the “hERG current change (%, negative = inhibition) at 1uM” value came to 16.3%. Consider `COc1ccc(NC(=O)CN2CCc3ccccc3C2)cc1OC`, for which the “hERG current change (%, negative = inhibition) at 1uM” value amounted to 10.8%.

Take `Cc1ccc(Cc2c(C)nc3nc(SCC(=O)NCCCN4CCOCC4)nn3c2C)cc1`: the “hERG current change (%, negative = inhibition) at 1uM” value is given as 6.68%. Next, `COc1ccccc1C(=O)Nc1ccccc1N1CCOCC1`: 1.38%. Take `CCNc1nc(Cl)nc(NCc2ccccc2)n1`: the “hERG current change (%, negative = inhibition) at 1uM” value came to 8.19%. `Cc1cc(N2CCCCC2)ccc1C=C1C(=O)N(C)C(=S)N(C)C1=O`: the “hERG current change (%, negative = inhibition) at 1uM” value came to 16.1%. For the molecule `Cc1cnc(C(=O)OC(C)C(=O)NC2CCCc3ccccc32)cn1` (stereo not drawn), the “hERG current change (%, negative = inhibition) at 1uM” value is listed as 10.6%. `COc1ccc(-c2csc(NC(=O)c3ccc(OCC(=O)N4CCOCC4)c(OC)c3)n2)cc1`: the “hERG current change (%, negative = inhibition) at 1uM” value is reported as -19.3%. With `CCC(C)(C)NC(=O)C(c1sccc1C)N(Cc1ccco1)C(=O)c1csnn1` (stereo not drawn), the “hERG current change (%, negative = inhibition) at 1uM” value amounted to 5.8%. Consider `CN(C)c1ccc(/C=C/C(=O)c2cccnc2)cc1`, for which the “hERG current change (%, negative = inhibition) at 1uM” value turned out to be 6.82%. For `Cc1ccc2nc(-c3ccc(NC(=O)COC(=O)c4ccco4)cc3)sc2c1`, the “hERG current change (%, negative = inhibition) at 1uM” value is given as 4.4%. For the molecule `O=C(N/N=C/c1c[nH]c2ccccc12)c1cc(Cl)ccc1O`, the “hERG current change (%, negative = inhibition) at 1uM” value was 11.3%. Consider `Cc1nn(C(C)C)c(C)c1[C@@H]1C[C@H]2CN(Cc3cccc(Cl)c3)C(=O)[C@]23CCCN13`, for which the “hERG current change (%, negative = inhibition) at 1uM” value is given as -1.55%.

As to `COC(=O)C[C@H]1c2cc(F)ccc2S(=O)(=O)N1C(C)C`, the “hERG current change (%, negative = inhibition) at 1uM” value was found to be 16.8%.

As for `CCOc1ccc(NC(=S)NS(=O)(=O)c2cc(Br)ccc2OCC)cc1`, the “hERG current change (%, negative = inhibition) at 1uM” value was 16.6%. As for `CN1CCC2(CC1)NC(=O)C1=C(CN(C)CC1)N2`, the “hERG current change (%, negative = inhibition) at 1uM” value amounted to 15.5%. `Cc1cc(SCC(=O)c2ccccc2)nc(SCC(=O)c2ccccc2)n1`: the “hERG current change (%, negative = inhibition) at 1uM” value was found to be 10.5%. For `COCCNc1nc(N)c([N+](=O)[O-])c(Nc2ccc(F)cc2)n1`, the “hERG current change (%, negative = inhibition) at 1uM” value amounted to 10.8%.

As to `FC(F)(F)COc1ccc(-n2ccnc2)nn1`, the “hERG current change (%, negative = inhibition) at 1uM” value was 7.05%.

`Cc1sc2ncnc(N)c2c1C`: the “hERG current change (%, negative = inhibition) at 1uM” value is given as 5.81%. Regarding `COc1cccc(CN(CC(=O)NC2CCCC2)C(=O)c2csnn2)c1`, the “hERG current change (%, negative = inhibition) at 1uM” value turned out to be 12.6%. With `CC(=O)N/C(=C\c1ccccc1)C(=O)OCC(=O)NC1CCS(=O)(=O)C1` (stereo not drawn), the “hERG current change (%, negative = inhibition) at 1uM” value was -4.54%. Next, `Cc1ccc2c(n1)sc1c(N)ncnc12`: 15%. As to `CCOC(=O)N1CCN(CC(O)COc2ccc(CC)cc2)CC1.Cl` (stereo not drawn), the “hERG current change (%, negative = inhibition) at 1uM” value is recorded as 0.0015%. For the molecule `Cc1cccc(-c2nnc(SCC(=O)Nc3nc4c(s3)CCCC4)n2C)c1`, the “hERG current change (%, negative = inhibition) at 1uM” value is -2.41%. As for `Cc1ccc(/C(N)=N/OC(=O)N2c3ccccc3Sc3ccccc32)cc1`, the “hERG current change (%, negative = inhibition) at 1uM” value is 9.41%. To `COCCN1CCN(Cc2nc(Cc3ccc(OC)c(OC)c3)no2)CC1` belongs 7.26%.

`Cc1ccc(S(=O)(=O)N2CCC(=O)N(C(COCc3ccc(Cl)cc3)C(C)C)CC2)cc1` (stereo not drawn): the “hERG current change (%, negative = inhibition) at 1uM” value was -20.5%. As to `COc1ccc(CCNC(=O)COC(=O)c2ccccc2NCCO)cc1OC`, the “hERG current change (%, negative = inhibition) at 1uM” value stood at 8.36%. Consider `O=C(CS(=O)(=O)c1ccc(F)cc1)NCCS(=O)(=O)c1ccccc1`, for which the “hERG current change (%, negative = inhibition) at 1uM” value was determined as 15.7%.

As to `O=S(=O)(Nc1ccn(-c2ccccc2)n1)c1ccc(Br)cc1`, the “hERG current change (%, negative = inhibition) at 1uM” value was found to be 16%. For the molecule `COC(=O)c1ccc(N2CCN(C)CC2)c(NC(=O)c2sc3ccccc3c2Cl)c1`, the “hERG current change (%, negative = inhibition) at 1uM” value worked out at 15.5%. To `COC(=O)C1=C(c2ccc3ccccc3c2)C[C@@H]2CC[C@H]1N2C(=O)NCCNC(C)=O` belongs 13.7%. To `C=CCNC(=O)CCCc1ccccc1` belongs 1.79%; to `Cc1cnc(C(=O)Nc2nnc(SCc3c(Cl)cccc3Cl)s2)cn1`, 4.29%; to `C=C(C)CSc1cc(C)nc2c(-c3ccccc3)c(C)nn12`, 8.13%. Regarding `COc1cccc(NC(=S)N2CCn3c(nc4ccccc43)C2)c1`, the “hERG current change (%, negative = inhibition) at 1uM” value was -2.41%.

Turning to `C=CCN1C(=O)/C(=C2/Sc3ccccc3N2CCCS(=O)(=O)O)SC1=S.c1ccncc1`, the “hERG current change (%, negative = inhibition) at 1uM” value amounted to 5.03%. Regarding `CCS(=O)(=O)N1CCN=C1SCc1ccc(F)cc1`, the “hERG current change (%, negative = inhibition) at 1uM” value was determined as 12.3%.
